{
  "source": "the supplement of paper PMC11417369",
  "note": "The other results are listed elsewhere or left out.",
  "data": [
    {"test_system": "PfSIP2 AP2 domain 1 (GST-tagged)", "test": "gcPBM binding intensity (ln(normalized median fluorescence intensity)); higher = stronger DNA binding", "method_in_brief": "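An Agilent 4 × 180k array of primer-extended double-stranded 36-bp intergenic genomic probes, with negative controls, was incubated for 1 h with GST-tagged P. falciparum DNA-binding domains expressed in E. coli. Alexa488 anti-GST antibody detected bound protein, scanned at 488 nm. Binding intensity is the highest Masliner-normalised natural-log median intensity across replicate spots of either probe orientation.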", "values": [
      {"sequence": "CATATATATATATGAACACACAAAAAGAATATTTCC [CACACA_site1493]", "gcPBM binding intensity (ln)": 7.13},
      {"sequence": "TCTATACCTATTCTTACACACATATGTATTTATATA [CACACA_site4475]", "gcPBM binding intensity (ln)": 7.25},
      {"sequence": "AATTATATTTAGTATATGCACACTTTATGTTTGTTA [CACACA_site2025]", "gcPBM binding intensity (ln)": 7.9},
      {"sequence": "GTAGAAAGAAAAATTAGTACTTAAATATTATAAAAA [XGTACX_site8458]", "gcPBM binding intensity (ln)": 6.79},
      {"sequence": "TTCTATGCATTTATAGTGCATGTAAAATATAAGATA [GTGCAC_site9466]", "gcPBM binding intensity (ln)": 10.9},
      {"sequence": "TTTAAAAAAAAAAAAAATTTTTTTTTTTTTTTTTTA [CACACA_negctrl_site1415]", "gcPBM binding intensity (ln)": 6.61},
      {"sequence": "GACTTTTTCATTTTTAGTACACATATATATTTCCCT [XGTACX_site3511]", "gcPBM binding intensity (ln)": 7.58},
      {"sequence": "AAAAAAAAAAAACATACACACACACTAATATTTATA [CACACA_site8038]", "gcPBM binding intensity (ln)": 7.14},
      {"sequence": "TTAAAAAATCACAACACACACACACCCAAAAAAAAA [CACACA_site1445]", "gcPBM binding intensity (ln)": 7.03},
      {"sequence": "ATATATTTTTAATATGCACACAAGAATACATTCACA [CACACA_site914]", "gcPBM binding intensity (ln)": 9.27},
      {"sequence": "TTTTAAAAAATATAATAATATAAATATTTTATACGT [TGCATGCA_negctrl_site252]", "gcPBM binding intensity (ln)": 6.78},
      {"sequence": "TTCTGTATACGGTGTGCACACAATTAAAAAAAAAAA [CACACA_site1416]", "gcPBM binding intensity (ln)": 9.47},
      {"sequence": "AACATATAAAAATATGCACACACAGGAATACAAACA [CACACA_site8127]", "gcPBM binding intensity (ln)": 7.68},
      {"sequence": "TTAAATAACCTCAAGGATAAGAAAAAATTAAAAATT [CACACA_negctrl_site1336]", "gcPBM binding intensity (ln)": 6.54},
      {"sequence": "CTTTATATATATTGCGTGCACATTTTTTTTTTTTTT", "gcPBM binding intensity (ln)": 9.52},
      {"sequence": "GAAATAATAAAATCGACACACAAAAAAAAAAAAAAA [CACACA_site3476]", "gcPBM binding intensity (ln)": 6.82},
      {"sequence": "CTATTTAAAATTTGAACACACATTATTTATTTTAAA [CACACA_site3114]", "gcPBM binding intensity (ln)": 6.9},
      {"sequence": "AATAAATACAAAAATGTACACACATATATATATTTT [CACACA_site9167]", "gcPBM binding intensity (ln)": 6.97},
      {"sequence": "TCAATATATATAAGAAGTACATGTGAATGAAAAAAA [XGTACX_site1674]", "gcPBM binding intensity (ln)": 7.14},
      {"sequence": "GGATTTTACCATAGCACACATATATGAATATTTTTC [CACACA_site1814]", "gcPBM binding intensity (ln)": 7.17},
      {"sequence": "TTTATATACTATCAACGTACAAAAGTAATAAAAATA [XGTACX_site4343]", "gcPBM binding intensity (ln)": 7.27},
      {"sequence": "CATTTTATTTTCTTTGTGCACAAAAATATTTTTTCT", "gcPBM binding intensity (ln)": 8.78},
      {"sequence": "TTGTAACAAAAGTACACACACATTTCTATAAATTTT [CACACA_site2772]", "gcPBM binding intensity (ln)": 7.15},
      {"sequence": "AAAGTTATGATATATACACACATATAAATATTAAAT [CACACA_site6361]", "gcPBM binding intensity (ln)": 6.98},
      {"sequence": "TGTTCTAATTTTAATTGTACATATATACATATATAT [XGTACX_site7290]", "gcPBM binding intensity (ln)": 7.21},
      {"sequence": "GTAAATATATATATATATATATATATATATATATAT [GTGCAC_negctrl_site239]", "gcPBM binding intensity (ln)": 9.48},
      {"sequence": "TTTTTTTTTTTTTTTTTTTTTTTCTACCTATTTATT [CACACA_negctrl_site94]", "gcPBM binding intensity (ln)": 6.8},
      {"sequence": "TATGTATATTGAGATTGTACTTGTAATATTAAACAT [XGTACX_site3878]", "gcPBM binding intensity (ln)": 7.11},
      {"sequence": "TTGTATAAAATATGTAGTACAATAATATAACATTTT [XGTACX_site8607]", "gcPBM binding intensity (ln)": 7.21},
      {"sequence": "AAGGAATAAAATTTAGAAGACAATTTTATTTCAGTA [XGTACX_negctrl_site331]", "gcPBM binding intensity (ln)": 6.71},
      {"sequence": "ATATCAAATAATTTAGTGCACTTTTTTTTTTCTTTT [GTGCAC_site9629]", "gcPBM binding intensity (ln)": 10.4},
      {"sequence": "GGTATTTTCACATATAGTACACAAAAATAAAATAAA [XGTACX_site2139]", "gcPBM binding intensity (ln)": 7.79},
      {"sequence": "TTTATACTTTCAAAATGTACATATATATATATATAT [XGTACX_site6241]", "gcPBM binding intensity (ln)": 9.29},
      {"sequence": "ATTTCTCTATCGTAATGTACAAAAAAAAGGGAAAAG [XGTACX_site1335]", "gcPBM binding intensity (ln)": 7.11},
      {"sequence": "ATTGAAGGGAAATATATAATCATATTCAAAATAAAA [CACACA_negctrl_site728]", "gcPBM binding intensity (ln)": 6.62},
      {"sequence": "CTAATCATAAAATATACACACACGGATACATTAAAT [CACACA_site2685]", "gcPBM binding intensity (ln)": 7.02},
      {"sequence": "TAATATATAATTTTATGTACATAATTATAAACCCAT [XGTACX_site919]", "gcPBM binding intensity (ln)": 7.25},
      {"sequence": "AAAAAATACCAAAGGGGTACTTACACATAATACTTA [XGTACX_site2111]", "gcPBM binding intensity (ln)": 6.83},
      {"sequence": "CTTTTTACTTAATACACACACACACCCAAAAAAAAA [CACACA_site948]", "gcPBM binding intensity (ln)": 7.57},
      {"sequence": "CATCAAAATGAAGCATGTACATAATATAAATAAATA [XGTACX_site4647]", "gcPBM binding intensity (ln)": 7.02},
      {"sequence": "TGACGACATTTCTTATGTACTAATTTTTCTTCCTTT [XGTACX_site4391]", "gcPBM binding intensity (ln)": 6.84},
      {"sequence": "TAAAAAAAGAAAAAAAGTACATGCTACTTTTATGAT [XGTACX_site7818]", "gcPBM binding intensity (ln)": 6.99},
      {"sequence": "CAAAATGATATGACAACACACAACCTATAGTAAGAC [CACACA_site1287]", "gcPBM binding intensity (ln)": 7.17},
      {"sequence": "TAATATATAATAAAGTGTACATATGCTTTATTATTA [XGTACX_site1920]", "gcPBM binding intensity (ln)": 6.98},
      {"sequence": "TGAATGCTTTTATGCACACGTACAAAAATATTATAT [CACACA_site2668]", "gcPBM binding intensity (ln)": 7.38},
      {"sequence": "AATAAAAATAACCTAACATGCAAAAAAAAAAAAAAA [TGCATGCA_site718]", "gcPBM binding intensity (ln)": 6.82},
      {"sequence": "GTCATTAAAAAAATATGTACTTAAATGTATGCATAT [XGTACX_site5951]", "gcPBM binding intensity (ln)": 7.12},
      {"sequence": "GGAATATAAATACATACACACATATATATATATATA [CACACA_site4998]", "gcPBM binding intensity (ln)": 9.34},
      {"sequence": "TATAATAAATCAAATGCACACACACTAATAAAAAAA [CACACA_site7937]", "gcPBM binding intensity (ln)": 7.53},
      {"sequence": "TATATATTATATATATGTACTTATTTATTAATTTAT [XGTACX_site5253]", "gcPBM binding intensity (ln)": 7.21},
      {"sequence": "TGTGGTTTTTATAATTGTACATATATATAAATCTAT [XGTACX_site4766]", "gcPBM binding intensity (ln)": 7.17},
      {"sequence": "ATATAAAATAAATAAGTGCAGATAAATTTATGTGAC [GTGCAC_site9504]", "gcPBM binding intensity (ln)": 8},
      {"sequence": "TGTTGTTATAAAAAAAAAAAAAAAAAAAAAAAAAAA [GTGCAC_negctrl_site230]", "gcPBM binding intensity (ln)": 7.12},
      {"sequence": "ATGAATATTTACAATCTTATTATGTTCAAAATTAAT [CACACA_negctrl_site592]", "gcPBM binding intensity (ln)": 6.69},
      {"sequence": "TACATGCTTATTTTAACACACAAATGGTAGTAATAA [CACACA_site766]", "gcPBM binding intensity (ln)": 6.93},
      {"sequence": "ATTTATTTATTTTCATGTACATATGTAAATCAATAA [XGTACX_site3886]", "gcPBM binding intensity (ln)": 7.02},
      {"sequence": "TATATAATATAATGTAGTACATGTTTTATTTTTTAC [XGTACX_site7735]", "gcPBM binding intensity (ln)": 7.19}
    ]}
  ]
}
